Measured values published in the supplement of paper PMC11060735.
Values joined by “and” are separate entries in the source; they are usually repeats but may differ in a detail not shown here. Identical values can stand only once. Counter-ions that a name gives are not always drawn. About 50 (3%) of roughly 1,800 compounds showed activity. This is one part of the list.
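Further: fibroblasts sorted 14 days after bleomycin, GFP+ and GFP− mixed 1:1 in 384-well plates (GFP− as in-well control), imaged after Hoechst and NucView530 staining, reference wells lacked compound.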

Each compound was assayed on mouse p16Ink4a+/- lung fibroblasts (INKBRITE, bleomycin-injured) (assay: percentage of GFP+ (p16Ink4a+) fibroblasts among all cells in well; higher = less depletion of p16Ink4a+ cells, active = 20 or less). Conditions: 1 µM; 3 days.
In the case of `CCCCOc1ccc(C(=O)CCN2CCCCC2)cc1` [Dyclonine], the “percentage of GFP+” value is reported as inactive: 47.1%. In the case of `CCCN1CCCC[C@H]1C(=O)Nc1c(C)cccc1C` [Ropivacaine, Ropivacaine Hydrochloride], the “percentage of GFP+” value is reported as inactive: 46%. In the case of `O=C(Nc1ccccc1Br)N[C@@H]1CCN(c2ccc(C(F)(F)F)cn2)C1`, the “percentage of GFP+” value is reported as inactive: 39.1%. `CCOC(=O)N1CCC(=C2c3ccc(Cl)cc3CCc3cccnc32)CC1` [Loratadine] was tested, and the “percentage of GFP+” value was inactive: 54.5%. With `COc1nc(N)nc2c1ncn2[C@@H]1O[C@H](CO)[C@@H](O)[C@@H]1O` [Nelarabine] the “percentage of GFP+” value was inactive: 36.4%. In the case of `CCOc1nc2cccc(C(=O)O)c2n1Cc1ccc(-c2ccccc2-c2nn[nH]n2)cc1` [Candesartan], the “percentage of GFP+” value is reported as inactive: 42.4%. `O=C(c1cccc(Cl)c1F)N1CCN(Cc2cccc(Nc3nccs3)n2)CC1` was tested, and the “percentage of GFP+” value was inactive: 31.9%. For `N#CC(=C(/N)Sc1ccccc1N)/C(C#N)=C(\N)Sc1ccccc1N`, the “percentage of GFP+” value was inactive: 45.5%. For `Cn1nc(C(C)(C)C)cc1C(=O)N[C@@H](Cc1cccc(Cl)c1)C(=O)NCC#N` [Cathepsin Inhibitor 1], the “percentage of GFP+” value was inactive: 52.1%. In the case of `CC(C)(CO)c1cc2cc(NC(=O)C3(c4ccc5c(c4)OC(F)(F)O5)CC3)c(F)cc2n1C[C@@H](O)CO`, the “percentage of GFP+” value is reported as inactive: 33%. For `COC1=CC(=O)C[C@@H](C)[C@]12Oc1c(Cl)c(OC)cc(OC)c1C2=O` [Griseofulvin], the “percentage of GFP+” value was inactive: 40.1%. With `Cc1cn(C2C=CC(CO)O2)c(=O)[nH]c1=O` (stereo unspecified) [Stavudine] the “percentage of GFP+” value was inactive: 37.8%. For `CN1C2CCCC1CC(NC(=O)c1nn(C)c3ccccc13)C2` (stereo unspecified) [Granisetron Hydrochloride], the “percentage of GFP+” value was inactive: 39.2%. With `Cc1cccc(C)c1OCC(=O)N[C@@H](Cc1ccccc1)[C@@H](O)C[C@H](Cc1ccccc1)NC(=O)[C@H](C(C)C)N1CCCNC1=O` [Lopinavir] the “percentage of GFP+” value was inactive: 30.6%. `CC1=C(/C=C/C(C)=C/C=C/C(C)=C/C=C/C=C(C)/C=C/C=C(C)/C=C/C2=C(C)CCCC2(C)C)C(C)(C)CCC1` [Beta-carotene] was tested, and the “percentage of GFP+” value was inactive: 49.2%. `CCS(=O)(=O)CCn1c([N+](=O)[O-])cnc1C` [Tinidazole] was tested, and the “percentage of GFP+” value was inactive: 45.9%. In the case of `CC[C@@H]1C(=O)OC[C@@H]1Cc1cncn1C` [Pilocarpine], the “percentage of GFP+” value is reported as inactive: 46.3%. For `CC(C)NCC(O)c1ccc(O)c(O)c1` (stereo unspecified) [Isoprenaline], the “percentage of GFP+” value was inactive: 40.9%. In the case of `CC[C@H]1OC(=O)C[C@@H](O)[C@H](C)[C@@H](O[C@@H]2O[C@H](C)[C@@H](O[C@H]3C[C@@](C)(O)[C@@H](O)[C@H](C)O3)[C@H](N(C)C)[C@H]2O)[C@@H](CC=O)C[C@@H](C)C(=O)/C=C/C(C)=C/[C@@H]1CO[C@@H]1O[C@H](C)[C@@H](O)[C@@H](OC)[C@H]1OC` [Tylosin Tartrate], the “percentage of GFP+” value is reported as inactive: 52.1%. With `OCC(O)CN1CCN(c2ccccc2)CC1` (stereo unspecified) [Dropropizine] the “percentage of GFP+” value was inactive: 51.5%. In the case of `CNC(=O)CN1CCC(Oc2cc3c(Nc4cccc(Cl)c4F)ncnc3cc2OC)CC1` [Sapitinib], the “percentage of GFP+” value is reported as inactive: 47.4%. `CC1(C)CC(=O)c2c(C(F)(F)F)nn(-c3ccc(C(N)=O)c(N[C@H]4CC[C@H](O)CC4)c3)c2C1` was tested, and the “percentage of GFP+” value was active: 6.92%. `CC[C@H](CO)Nc1nc(NCc2ccccc2)c2ncn(C(C)C)c2n1` [Roscovitine, Seliciclib] was tested, and the “percentage of GFP+” value was inactive: 42%. `CCCS(=O)(=O)Nc1ccc(F)c(C(=O)c2c[nH]c3ncc(-c4ccc(Cl)cc4)cc23)c1F` [Vemurafenib] was tested, and the “percentage of GFP+” value was inactive: 42.6%. For `Clc1ccc(C(Cn2ccnc2)OCc2c(Cl)cccc2Cl)c(Cl)c1` (stereo unspecified) [Isoconazole], the “percentage of GFP+” value was inactive: 32.3%. In the case of `Clc1ccccc1CN1CCc2sccc2C1` [Ticlopidine], the “percentage of GFP+” value is reported as inactive: 43.4%. In the case of `CO[C@H]1/C=C\C=C(/C)C(=O)NC2=CC(=O)/C(=N\CCN(C)C)C(=C2O)C[C@@H](C)C[C@H](OC)[C@H](O)[C@@H](C)/C=C(\C)[C@@H]1OC(N)=O` [Alvespimycin], the “percentage of GFP+” value is reported as active: 12.4%. For `CC(=O)OCC(=O)[C@@]12N=C(C)O[C@@H]1C[C@H]1[C@@H]3CCC4=CC(=O)C=C[C@]4(C)[C@H]3[C@@H](O)C[C@@]12C` [Deflazacort], the “percentage of GFP+” value was inactive: 31.1%. In the case of `CC(COc1ccccc1)N(CCCl)Cc1ccccc1` (stereo unspecified) [Phenoxybenzamine], the “percentage of GFP+” value is reported as inactive: 37.6%. `O=C(Nc1c(Cl)cncc1Cl)c1ccc(OC(F)F)c(OCC2CC2)c1` [Roflumilast] was tested, and the “percentage of GFP+” value was inactive: 44.9%. In the case of `c1cncc(CN2CCC(n3ncc4c(N5CCOCC5)nc(-c5ccc6[nH]ccc6c5)nc43)CC2)c1`, the “percentage of GFP+” value is reported as inactive: 28.6%. `COc1cc2ncnc(Nc3ccc(F)c(Cl)c3)c2cc1OCCCN1CCOCC1` [Gefitinib] was tested, and the “percentage of GFP+” value was inactive: 41.6%. For `OCc1ccc(O[C@@H]2O[C@H](CO)[C@@H](O)[C@H](O)[C@H]2O)cc1` [Gastrodin], the “percentage of GFP+” value was inactive: 36.5%. For `C=C1/C(=C\C=C2/CCC[C@]3(C)[C@@H]([C@H](C)CCCC(C)(C)O)CC[C@@H]23)C[C@@H](O)C[C@@H]1O` [Calcitriol, DN-101], the “percentage of GFP+” value was inactive: 22.2%. For `CCOC(=O)N1c2ccc(C(F)(F)F)cc2[C@@H](N(Cc2cc(C(F)(F)F)cc(C(F)(F)F)c2)C(=O)OC)C[C@H]1CC` [Torcetrapib], the “percentage of GFP+” value was inactive: 49.4%. With `CC[C@H]1OC(=O)[C@H](C)[C@@H](O[C@H]2C[C@@](C)(OC)[C@@H](O)[C@H](C)O2)[C@H](C)[C@@H](O[C@H]2O[C@H](C)C[C@H](N(C)C)[C@H]2O)[C@](C)(O)C[C@@H](C)C(=O)[C@H](C)[C@@H](O)[C@]1(C)O` [Erythromycin] the “percentage of GFP+” value was inactive: 42%. With `O=C(Nc1cccnc1)N1CCC(Cc2cccc(Oc3ccc(C(F)(F)F)cn3)c2)CC1` the “percentage of GFP+” value was inactive: 52%. With `Oc1ccnc(S)n1` [2-thiouracil] the “percentage of GFP+” value was inactive: 48.2%. For `Cc1cc(Cl)ccc1OCCCC(=O)NO` [Droxinostat], the “percentage of GFP+” value was inactive: 45.1%. For `CCC[C@@H]1C[C@@H](C(=O)N[C@H](C(C)Cl)[C@H]2O[C@H](SC)[C@H](O)[C@@H](O)[C@H]2O)N(C)C1` (stereo partly specified) [Clindamycin HCl], the “percentage of GFP+” value was inactive: 58% and inactive: 34.2%. `Cc1c(OCC(F)(F)F)ccnc1CS(=O)c1nc2ccccc2[nH]1` (stereo unspecified) [Lansoprazole] was tested, and the “percentage of GFP+” value was inactive: 44.2%. `CCO/C(O)=C1\C(COCCN)=NC(C)=C(C(=O)OC)C1c1ccccc1Cl` (stereo unspecified) [Amlodipine] was tested, and the “percentage of GFP+” value was inactive: 37.5%. With `CO[C@@H](C(=O)N1Cc2[nH]nc(NC(=O)c3ccc(N4CCN(C)CC4)cc3)c2C1)c1ccccc1` [Danusertib] the “percentage of GFP+” value was inactive: 39%. With `OC(CC1c2ccccc2-c2cncn21)C1CCCCC1` (stereo unspecified) the “percentage of GFP+” value was inactive: 43%. In the case of `C=CC(=O)Nc1cc2c(Nc3ccc(F)c(Cl)c3)ncnc2cc1OCCCN1CCOCC1`, the “percentage of GFP+” value is reported as inactive: 42.3%. `CS(=O)(=O)c1ccc(-c2cnc(N)c(C(=O)Nc3ccccc3)n2)cc1` was tested, and the “percentage of GFP+” value was inactive: 36.4%. `COc1cc(C(=O)NC2CCCNC2)cc(OC)c1OC` (stereo unspecified) [Troxipide] was tested, and the “percentage of GFP+” value was inactive: 47.9%. `COc1cc2c(cc1OC)CN(CCc1ccc(NC(=O)c3cc(OC)c(OC)cc3NC(=O)c3cnc4ccccc4c3)cc1)CC2` [Tariquidar] was tested, and the “percentage of GFP+” value was inactive: 45.1%. `CCCCCCCCCCCCCCCC(=O)OC[C@H](O)[C@H]1OC(O)=C(O)C1=O` [L-Ascorbyl 6-palmitate] was tested, and the “percentage of GFP+” value was inactive: 47.7%. For `CCc1c(O)cc(O)c(C(=O)c2ccc(OCCN3CCOCC3)c(OC)c2)c1CC(=O)N(CCOC)CCOC`, the “percentage of GFP+” value was inactive: 48%. For `C[C@]12C=CC(=O)C=C1CC[C@@H]1[C@@H]2C(=O)C[C@@]2(C)[C@H]1CC[C@]2(O)C(=O)CO` [Prednisone], the “percentage of GFP+” value was inactive: 36.4%. In the case of `COc1ccc(C(=O)CC(=O)c2ccc(C(C)(C)C)cc2)cc1` [Avobenzone], the “percentage of GFP+” value is reported as inactive: 43.5%. `CN(C)CCOC(c1ccccc1)c1ccccc1` [Diphenhydramine] was tested, and the “percentage of GFP+” value was inactive: 47.9%. For `N=c1ccn2c(n1)O[C@H]1[C@H](O)[C@@H](CO)O[C@H]12` [Cyclocytidine HCl], the “percentage of GFP+” value was inactive: 40.5%. In the case of `Cn1c(=O)c2c(ncn2CC(O)CO)n(C)c1=O` (stereo unspecified) [Dyphylline], the “percentage of GFP+” value is reported as inactive: 34.3%. For `CCCCc1nc(Cl)c(CO)n1Cc1ccc(-c2ccccc2-c2nn[nH]n2)cc1` [Losartan, Losartan Potassium], the “percentage of GFP+” value was inactive: 44.4%. For `CO[C@H]1O[C@@H]2O[C@]3(C)CC[C@H]4[C@H](C)CC[C@@H]([C@H]1C)[C@@]24OO3` [Artemether], the “percentage of GFP+” value was inactive: 39.1%. For `CN1C(C(=O)Nc2ccccn2)=C(O)c2ccccc2S1(=O)=O` [Piroxicam], the “percentage of GFP+” value was inactive: 44.9%. With `O=C(/C=C/c1ccc(CN(CCO)CCc2c[nH]c3ccccc23)cc1)NO` [Dacinostat] the “percentage of GFP+” value was active: 4.88%. In the case of `CCN(CC)CCOC(=O)c1ccc(N)cc1` [Procaine, Novocain], the “percentage of GFP+” value is reported as inactive: 44.3%. In the case of `CCCCCCCCCCCCCCCC(=O)OC1C(SC)OC(C(NC(=O)C2CC(CCC)CN2C)C(C)Cl)C(O)C1O` (stereo unspecified) [Clindamycin palmitate HCl], the “percentage of GFP+” value is reported as inactive: 45.8%. In the case of `c1cc(-c2cnn3cc(-c4ccc(N5CCNCC5)cc4)cnc23)c2cccnc2c1`, the “percentage of GFP+” value is reported as inactive: 39.2%. With `Cc1c(Cn2c(C)nc3c(C(=O)O)cc(N4CCOCC4)cc32)cccc1C(F)(F)F` the “percentage of GFP+” value was inactive: 52.7%. For `COc1ccc(-c2ccc3c(N4CCOCC4)nc(N4C[C@@H](C)O[C@@H](C)C4)nc3n2)cc1CO`, the “percentage of GFP+” value was inactive: 23.7%. `CC(=O)N[C@@H](CS)C(=O)O` [Acetylcysteine] was tested, and the “percentage of GFP+” value was inactive: 39%. `Nc1c(Br)cc(Br)cc1CN[C@H]1CC[C@H](O)CC1` [Ambroxol] was tested, and the “percentage of GFP+” value was inactive: 44.2%.
